Results on 61 compounds are retold here after PubChem BioAssay AID485344 (National Center for Advancing Translational Sciences (NCATS), 2010).

Molecules are shown by their SMILES. Out of some 340,000 compounds screened, about 6,900 (2%) were called active. Rule as the data show it: active = inhibition above about 30%; inactive = below that, where a call was filed. The list shows a part of the results, in another mix than the full data. The source gives no active or inactive call for entries shown without one.

This test has as its target D(2) dopamine receptor (Homo sapiens) (UniProt P14416). Description: HTS Assay for Allosteric Antagonists of the Human D2 Dopamine Receptor: Primary Screen for Antagonists. Also: 0% is about no effect. Particulars: HEK293 TREx D2 cells, calcium flux, dopamine EC80; at 10 µM; stronger effect = higher value. Summed up: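 Overnight-induced (tetracycline, 30 C) HEK293 T-REx cells carrying force-coupled D2 receive a no-wash calcium dye, then compound, then EC80 dopamine at 180 s; signals are read kinetically throughout.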
Chain of UniProt P14416 (P14416 whole entry, looked up): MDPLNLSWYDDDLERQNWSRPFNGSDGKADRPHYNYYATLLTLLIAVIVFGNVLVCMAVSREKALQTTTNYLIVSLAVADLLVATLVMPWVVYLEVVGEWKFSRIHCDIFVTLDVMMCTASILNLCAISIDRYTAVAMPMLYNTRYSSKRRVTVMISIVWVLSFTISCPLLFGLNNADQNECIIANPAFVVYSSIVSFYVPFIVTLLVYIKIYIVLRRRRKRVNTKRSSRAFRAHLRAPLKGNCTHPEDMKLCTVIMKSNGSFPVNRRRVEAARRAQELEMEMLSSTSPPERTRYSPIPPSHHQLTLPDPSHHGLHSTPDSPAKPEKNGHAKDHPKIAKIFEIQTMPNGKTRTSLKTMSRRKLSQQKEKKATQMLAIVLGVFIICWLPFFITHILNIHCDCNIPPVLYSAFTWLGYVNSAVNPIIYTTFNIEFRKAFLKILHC
Background: A change in cytosolic calcium serves as a functional read-out for many receptors and channels.
By inhibition is commonly meant the change of the read-out against control, counted positive when it falls. Turning to `CN(c1ccccc1)S(=O)(=O)c1cccc(NC(=O)CN2CCc3ccccc3C2)c1`, the inhibition is active: 32.8%.

For the compound `N#Cc1nc(/C=C/c2ccc(F)cc2)oc1N1CCN(c2ccccc2)CC1`, the inhibition is 4.07%.

Turning to `O=C(COC(=O)c1ccccc1SCC(=O)N1CCCC1)Nc1ccccc1C(F)(F)F`, the inhibition is active: 31.1%.

Regarding `CC(C)c1ccc(OCC(=O)Nc2c(Cl)ccc3nsnc23)cc1`, the inhibition was -4.13%.

In the case of `CC1CCN(c2nn3c(=O)c(C(=O)NCc4ccc(Cl)cc4)cnc3s2)CC1`, the inhibition is -4.99%.

As to `Cc1noc(Cn2c(=O)c3ccccc3n(CC(=O)Nc3cccc(Cl)c3C)c2=O)n1`, the inhibition was -4.55%.

For `Cc1cc(C)nc(NC(=O)C(C)N2C(=O)c3ccccc3C2=O)n1` (stereo unspecified), the inhibition was active: 35.4%.

Take `CCOC(=O)c1ccc(NC(=O)CSc2c(C(C)C)cnc3c2c(=O)n(C)c(=O)n3C)cc1`: the inhibition was 9.95%.

On to `CCCS(=O)(=O)c1nc(S(=O)(=O)c2ccc(C)cc2)c(N(CC)CC)s1`, for which the inhibition was -4.22%.

On to `Cc1cc(C)c2c(CC(=O)Nc3ccc(F)cc3)coc2c1`, for which the inhibition is -6.55%.

For `Cc1ccc(-n2nc(C)c3nc(CCC(=O)Nc4cccc(C)c4C)c(=O)n(C)c32)cc1`, the inhibition turned out to be 2.54%.

As for `Cc1cccc(N2C(=O)N(Cc3cc(=O)n4ccccc4n3)c3ccccc3S2(=O)=O)c1`, the inhibition was -12.3%.

For `Cc1ccc2c(c1)C(=O)OC(C(=O)Nc1ncc(Cc3ccccc3Cl)s1)C2` (stereo unspecified), the inhibition is -7.65%.

For `Cc1ccc(-c2cc(-c3ccc4c(c3)NC(=O)CO4)nc3c2COc2ccccc2-3)cc1`, the inhibition was determined as 15.7%.

For `CCn1c(Cc2ccccc2)nnc1SCC(=O)Nc1ccccc1O`, the inhibition is active: 40%.

For `COc1ccc2c(c1)c1c(c(=O)n(-c3ccc(F)c(Cl)c3)c(=O)n1Cc1cccc(C)c1)n2C`, the inhibition was -1.95%.

As for `Cc1c(CCC(=O)NCCc2ccccc2)c(=O)oc2cc(O)ccc12`, the inhibition is -7.15%.

Take `Cc1ccc(C(=O)Nc2c(C(=O)NC(C)(C)C)oc3ccccc23)cc1`: the inhibition stood at 9.43%.

Turning to `C=CCNC(=O)Nc1cc(Cl)ccc1OC`, the inhibition was active: 38.4%.

Turning to `Cc1cccc(C(=O)Nc2ccc3oc(-c4cccc5c(Br)cccc45)nc3c2)c1`, the inhibition is -1.34%.

Regarding `CCc1ccc(NC(=O)C2CCN(c3nc(-c4ccc(OC)cc4)no3)CC2)cc1`, the inhibition is -0.272%.

As to `Cc1cc(OCC(=O)Nc2ccc(C(=O)OC3CCCCC3)cc2)cc(C)c1Cl`, the inhibition was -6.08%.

With `COc1ccc(CCNCc2c(C(=O)O)c(C)n(Cc3c(F)cccc3Cl)c2C)cc1OC`, the inhibition turned out to be 20.9%.

On to `COc1ccc2c(c1)CC(C(=O)NCc1ccc(F)cc1)CO2` (stereo unspecified), for which the inhibition was -0.75%.

As to `CCCOC(=O)Nc1cccc(C(C)=O)c1`, the inhibition was active: 35.2%.

In the case of `Cc1nnc(NC(=O)CSc2nc3c([nH]c4ccccc43)c(=O)n2-c2ccc(Cl)cc2)s1`, the inhibition is -3.94%.

`Cc1ccc2[nH]c(=O)c3cc(C(=O)N(C)c4ccc(Br)cc4)sc3c2c1`: the inhibition is -4.21%.

As for `CC(=O)Nc1cc(C(=O)NCc2ccccc2Cl)ccc1Sc1ccc(F)cc1`, the inhibition came to 6.8%.

Take `Cc1ccc(NC(=O)c2cc(S(=O)(=O)N3CCCCC3)c[nH]2)cc1N(C)C`: the inhibition came to 2.07%.

As for `Cc1cc(C)cc(NC(=O)c2cc(S(=O)(=O)NCCC3=CCCCC3)ccc2F)c1`, the inhibition is -2.38%.

As for `COc1ccc(NC(=O)Cn2c3ncccc3c(=O)n2-c2ccc(C)c(C)c2)c(OC)c1`, the inhibition stood at 3.68%.

`CCOCCCNC(=O)C(c1ccc(OC)cc1)N(Cc1ccc2c(c1)OCO2)C(=O)c1ccc(NC(C)=O)cc1` (stereo unspecified): the inhibition is -1.9%.

Consider `O=S(=O)(Nc1ccc2nc(-c3ccc(F)cc3)oc2c1)c1ccccc1`, for which the inhibition amounted to 5.1%.

With `CCCCc1nn2c(=O)cc(COC(=O)c3ccc(NC(=O)c4ccccc4Cl)cc3)nc2s1`, the inhibition was -3.07%.

Turning to `COc1cccc(CNC(=O)c2ccc3nc(N4CCCCC4)sc3c2)c1OC`, the inhibition was 1.91%.

In the case of `COc1cccc(CNC(=O)C(NS(=O)(=O)c2cccs2)C(C)C)c1` (stereo unspecified), the inhibition is -9.49%.

As to `Cc1ccc(CN2CCSc3ccc(C(=O)N4CCN(c5ccc(Cl)cc5)CC4)cc32)cc1`, the inhibition was -11.9%.

Take `COc1ccccc1NC(=O)c1cc(S(=O)(=O)NCCc2ccccc2)ccc1F`: the inhibition turned out to be 3.04%.

As for `CCCCN1C(=O)c2[nH]nc(-c3ccccc3O)c2C1c1cc(Br)c(O)c(OC)c1` (stereo unspecified), the inhibition was -9.51%.

For the compound `CCOc1ccc(CCNC(=O)Cn2ncn3c(cc4sc(C)cc43)c2=O)cc1OCC`, the inhibition is -4.53%.

`CC1CCC(NC(=O)c2ccc3c(c2)N(Cc2ccccc2F)C(=O)c2ccccc2S3=O)CC1` (stereo unspecified): the inhibition is -0.751%.

Take `O=C(NCc1ccccc1)C(=O)NCC(c1ccc2c(c1)OCO2)N1CCOCC1` (stereo unspecified): the inhibition was -0.811%.

Take `CCN1CCN(c2oc(/C=C/c3ccc(OC)c(OC)c3)nc2C#N)CC1`: the inhibition was determined as 0.961%.

Regarding `COc1ccc2c(c1)sc1ncc(C(=O)NCc3ccc(Cl)cc3)c(=O)n12`, the inhibition is -3.31%.

Consider `Clc1ccc(-c2cn3ncsc3n2)cc1`, for which the inhibition turned out to be 23%.

Consider `COc1ccc(S(=O)(=O)/C(C#N)=C/Nc2ccccc2F)cc1`, for which the inhibition is active: 39.8%.

For the compound `COc1ccc(-n2cc(C(=O)OCc3ccc(F)c(F)c3)c3ccccc3c2=O)cc1`, the inhibition came to 0.789%.

Consider `CCc1ccc(NS(=O)(=O)c2ccc3[nH]cc(C(=O)NCCc4cccc(C)c4)c(=O)c3c2)cc1`, for which the inhibition came to 2.2%.

Turning to `CCOc1ccc(-n2c(=O)c3sc4ccccc4c3n(Cc3cccc(C)c3)c2=O)cc1`, the inhibition was -16.7%.

Regarding `O=C(NC1(C(F)(F)F)C(=O)Nc2c1c(=O)[nH]c(=O)n2-c1ccc(F)cc1)c1ccccc1` (stereo unspecified), the inhibition stood at 0.474%.

Regarding `COc1ccc(C2C(=O)N(C3CCCCC3)CC(=O)N2CCC2=CCCCC2)cc1` (stereo unspecified), the inhibition is -3.28%.

As for `Cc1cccc(N2CCN(C(=O)CCc3c(C)nc4c(c3C)c(=O)n(C)c(=O)n4C)CC2)c1C`, the inhibition is 20.2%.

Take `Cc1ccc(OC(=O)c2cc(-c3ccc(Cl)cc3)on2)c(C)c1`: the inhibition was -20.1%.

Consider `Cc1ccc(-c2nc(NC(=O)CSc3ncnc4sc5c(c34)CCC(C)C5)ns2)cc1` (stereo unspecified), for which the inhibition was determined as 8.36%.

On to `CCOc1ccc(N(CC)S(=O)(=O)N2CCCC(C(=O)Nc3ccc(OC)c(OC)c3)C2)cc1` (stereo unspecified), for which the inhibition is -10%.

For `CCn1cc2nc(SCc3ccccc3Cl)n(CCc3ccccc3)c(=O)c2n1`, the inhibition is -5.91%.

In the case of `Cc1ccc(NC(=O)CCNS(=O)(=O)c2ccc(Br)s2)cc1`, the inhibition is -5.03%.

Consider `CCOC(=O)C1CCCN(C(=O)c2cccc(NC(=O)c3nsc4ccccc34)c2)C1` (stereo unspecified), for which the inhibition stood at 7.45%.

Consider `O=C(NCCS(=O)(=O)N1CCN(c2ccccc2F)CC1)C(c1ccccc1)c1ccccc1`, for which the inhibition was determined as 0.24%.

In the case of `COc1cc(C2C(=O)N(C3CCCCCC3)CC(=O)N2CCC2=CCCCC2)ccc1OC(C)C` (stereo unspecified), the inhibition is -21%.

Regarding `CNCCCC1c2ccccc2C=Cc2ccccc21`, the inhibition is active: 74.8%.
